Where “and” joins values, the source holds several entries; their conditions need not be identical. Equal values may be shown once.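 Tested at 5 concentrations; 48 h exposure; 96-well plates; endpoints linearly interpolated, else capped at highest concentration. GI50 = concentration required for 50% inhibition of growth.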 Calls of active or inactive are those of the source. No stated cut-off is given here; in the data, active = GI50 up to about 1.1 µM and inactive = higher.

This assay concerns NCI-H322M. The experiment in a line: growth of human tumour cells (NCI), 48 h.
On to `O=C(O)c1cccc(SSc2cccc(C(=O)O)c2)c1`, for which the GI50 was inactive: > 100 µM.
Regarding `Clc1ccc(-c2noc(CN3CCCCC3)n2)cc1`, the GI50 is inactive: > 100 µM.
Regarding `c1ccc2cc(NCNc3ccc4ccccc4c3)ccc2c1`, the GI50 was inactive: 23.2 µM.
Regarding `CN(C)CCNc1ccc2c(=O)n(CCN(C)C)c(=O)n3c4ccc(O)cc4c(=O)c1c23`, the GI50 was active: < 0.0172 µM.
As for `CC(C)C1=C(Cc2ccccc2)C(=O)O/C1=C\c1ccc(O)c(Cl)c1`, the figure is inactive: 16.9 µM.
For `CCN1CC2=C(OC(N)=C(C#N)C2c2ccc(Cl)cc2)/C(=C/c2ccc(Cl)cc2)C1` (stereo not given), the GI50 was inactive: 30.7 µM.
As for `CCOC(=O)/C(C#N)=C(/NS(=O)(=O)c1cc(C)c(Cl)cc1[S-])[n+]1ccc(N(C)C)cc1`, the figure is inactive: > 100 µM; as for `COC(=O)C1=CN(C2CCCCC2)C2(c3ccccc3)c3ccccc3C(=O)OC(=O)C12` (stereo not given), inactive: > 100 µM.
Regarding `Cc1cccc(C)c1NC(=O)C(=O)C(C(=O)c1ccccc1-c1ccccc1)C1OC(=O)c2ccccc21` (stereo not given), the GI50 is inactive: 22.4 µM.
Consider `COC(=O)c1c(O)ccc2c1c1c(n2Cc2cc(OC)cc(OC)c2)C(=O)c2ccccc2C1=O`, for which the GI50 is inactive: 17.5 µM.
Consider `COc1cc2c(cc1OC)C1C=NC(C(=O)O)(C2)c2ccccc21` (stereo not given), for which the GI50 was inactive: > 100 µM.
For the compound `Cc1ccc(S(=O)(=O)NC(=O)NCc2ccc(S(N)(=O)=O)cc2)cc1`, the GI50 was inactive: > 100 µM.
On to `CSc1c(C)c(C)nn1-c1ccccc1`, for which the GI50 is inactive: > 100 µM.
With `CCOC(=O)CCC1(C(=O)OC)CCCC1=O` (stereo not given), the GI50 was inactive: > 100 µM.
Under `CC1(C)O[C@@H](CC/C=C/CO)[C@H](CC/C=C/CO)O1` stands inactive: > 100 µM.
As to `O=c1ccc2ccc(O)c3c4c(O)ccc5ccc(=O)c(c1c23)c54`, the GI50 was inactive: 2.92 µM.
With `CC(C)OP(=O)(NC(=S)c1ccccc1)OC(C)C`, the GI50 was inactive: > 100 µM.
As to `COc1cc2c(c(O)c1OC)C(=O)C1CCC(=O)N1C2c1cccc2ccccc12` (stereo not given), the GI50 was inactive: > 100 µM.
For `CC(C(=O)NCCNC(=O)CCC(=O)N(C)O)C(=O)NCCNC(=O)CCC(=O)N(C)O`, the GI50 was inactive: > 100 µM.
Take `COC(=O)C1(C(=O)OC)Cc2ccc(OC)cc2C2=C1C(=O)c1ccccc1C2=O`: the GI50 is inactive: 19.6 µM.
Take `COc1ccc(/C(Cl)=C(\C=O)c2ccc([N+](=O)[O-])cc2)cc1`: the GI50 is inactive: 23.3 µM.
Take `CCCCCCCCCCCCCCCCNc1ccc2c(c1)OCCOCCOCCOCCO2`: the GI50 was inactive: 4.56 µM.
Regarding `CCOC(=O)c1cc(C2CCN(CC(C)CC)C2=S)c(C(=O)/C=C(/C)N)[nH]1` (stereo not given), the GI50 was inactive: > 50 µM.
Turning to `O=c1/c(=C/c2ccc3c(c2)OCO3)sc2nnc(Cc3ccccc3)n12`, the GI50 was inactive: > 100 µM.
`O=C(NC1(C(=O)NNc2nnc(-c3ccccc3)c(-c3ccccc3)n2)C(c2ccccc2)C(c2ccccc2)=NN1c1ccccc1)c1ccccc1` (stereo not given): the GI50 was inactive: > 100 µM.
As for `O=[N+]([O-])c1ccc(/C=C/c2ccc(/C=C/c3ccc([N+](=O)[O-])cc3[N+](=O)[O-])cc2)c([N+](=O)[O-])c1`, the GI50 was inactive: > 100 µM.
As to `Cc1ccccc1OC(C)C(=O)NN1C(=O)CC(=O)NC1=S` (stereo not given), the GI50 is inactive: 89.1 µM.
On to `O=C1Oc2ccccc2C(=O)/C1=C/N1C(=O)CNC1=S`, for which the GI50 was inactive: > 100 µM.
`COc1ccc2c(c1)OCC1(O)Cc3ccccc3OC21` (stereo not given): the GI50 was inactive: > 100 µM.
With `COc1cccc2c1C(=O)c1c(O)c3c(c(O)c1C2=O)C[C@@](O)(C(=O)CO)CC3OC1CC(O)C(O)C(C)O1` (stereo not given in full), the GI50 was active: 0.641 µM.
Turning to `CCN1/C(=C/C#C/C(C)=C\c2sc3ccccc3[n+]2CC)Sc2ccccc21`, the GI50 is inactive: 5.94 µM.
On to `COc1ccc(/N=N/C(=O)NC(CC(C)C)C(N)=O)cc1` (stereo not given), for which the GI50 was inactive: > 31.6 µM.
Under `COc1ccc(C2CCc3nc4nc(N)nc(N)c4cc3C2)cc1` (stereo not given) stands inactive: 33.7 µM; under `CC1CC(=O)NC2CC1C2(C)C` (stereo not given), inactive: > 100 µM; under `C/C(Nc1ccc(Cl)cc1Cl)=C1/CCOC1=O`, inactive: > 100 µM.
For the compound `C=CCN1CCC(c2cc(C(=O)OCC)[nH]c2-c2cc(C)no2)C1=O` (stereo not given), the GI50 is inactive: 76.4 µM.
Regarding `C[C@H]1CCCCC[C@@H]2CC(=O)CC2C(=O)CCC(=O)O1` (stereo not given in full), the GI50 is inactive: > 100 µM.
Regarding `CC(C)C1CCC(=O)CC1CCCCC1CC(=O)CC1O[Si](C)(C)C(C)(C)C` (stereo not given), the GI50 was inactive: 10.6 µM.
As to `CCOc1ccc(/N=C/c2ccc3ccccc3n2)cc1`, the GI50 is inactive: > 100 µM.
Under `COC(=O)c1ccc(Cl)cc1NC(=O)C1CCCCC1` stands inactive: > 100 µM; under `O=Cc1ccc2ccocc1-2`, inactive: > 100 µM; under `O=c1c2cccc3cccc(c4n1CCCN=4)c32`, inactive: > 100 µM.
On to `CS(=O)(=O)OCOS(C)(=O)=O`, for which the GI50 was inactive: > 100 µM.
As for `COC(=O)[C@H](Cc1ccccc1)NC(=O)[C@H](Cc1ccccc1)NC(=O)CN1C(=O)[C@@H]2C3C=CC(C3)[C@@H]2C1=O`, the GI50 was inactive: 17.1 µM and inactive: 17.2 µM.
Take `O=C1C[C@H](c2ccccc2)O[C@@H](c2ccccc2)C1`: the GI50 is inactive: > 100 µM.
`COc1ccc(/C=C\c2cc(OC)c(OC)c(OC)c2)cc1OC(=O)CCC(=O)O`: the GI50 is active: < 0.0001 µM.
`CSC1(C)CC2C(CC1N1CCCCC1)C2(C)C` (stereo not given): the GI50 is inactive: > 100 µM.
As to `BrC1=CN2C[n+]3cc(Br)c4ccccc4c3N=C2c2ccccc21`, the GI50 was inactive: 26.7 µM.
Take `CCOP(=O)(OCC)C(F)(F)CC1CCCCC1`: the GI50 was inactive: > 10 µM.
Under `CC1=Nn2c(nnc2-c2ccccc2Cl)NC(C)(C)C1` stands inactive: > 100 µM; under `CCOP(=O)(C/C=C/Cn1nc(Br)c(=O)[nH]c1=O)OCC`, inactive: > 100 µM; under `CO[C@@]1(c2ccccc2)O[C@H]2OCCC2[C@H]1c1ccc(Cl)cc1` (stereo not given in full), inactive: 30.5 µM.
On to `CC(C)(C)OC(=O)Cc1ccc2c(ccn2Cc2ccccc2)c1`, for which the GI50 was inactive: > 100 µM.
Take `COc1ccccc1C1Nn2c(nc3ccccc3c2=O)N1c1ccc(C)cc1` (stereo not given): the GI50 was inactive: 12.8 µM.
Turning to `CC(=O)OC1CCC2OOC1O2` (stereo not given), the GI50 was inactive: > 100 µM.
Consider `Cc1cc(NS(=O)(=O)c2ccc(NC(=O)c3cccc4c(Nc5ccc(S(=O)(=O)Nc6cc(C)on6)cc5)c5ccc(Cl)cc5nc34)cc2)no1`, for which the GI50 was inactive: 60.5 µM.
In the case of `CCOC(=O)C1Nc2ccccc2[C@H]2OCC[C@@H]12` (stereo not given in full), the GI50 was inactive: > 100 µM.
In the case of `CC[N+](C)(CC)Cc1ccccc1[N+](=O)[O-]`, the GI50 is inactive: > 100 µM.
As for `O=C1C(CO)=C[C@H](O)[C@H]2O[C@@H]12`, the GI50 is inactive: 130 µM.
With `CC(=O)Nc1nnc(S(C)(=O)=O)s1`, the GI50 is inactive: > 100 µM.

For the origin of these results see ChEMBL document CHEMBL1201862, “PubChem BioAssay data set” (2004).
